Assay results: publication PMC4336329 (PLoS ONE, 2015)
In all, about 310,000 compounds went through this assay and about 14,000 (4.5%) showed an effect of 50% or more. The effect is printed as a negative number. This is one part of the list.

The compounds below were run against human ether-à-go-go-related gene (hERG) potassium channel (human, UniProt Q12809) (assay: primary screen, population patch clamp on CHO cells stably expressing hERG).
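Also: peak tail current of the secondary pulse compared with the same well before compound.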

human ether-à-go-go-related gene (hERG) potassium channel, sequence (Q12809 whole entry, looked up): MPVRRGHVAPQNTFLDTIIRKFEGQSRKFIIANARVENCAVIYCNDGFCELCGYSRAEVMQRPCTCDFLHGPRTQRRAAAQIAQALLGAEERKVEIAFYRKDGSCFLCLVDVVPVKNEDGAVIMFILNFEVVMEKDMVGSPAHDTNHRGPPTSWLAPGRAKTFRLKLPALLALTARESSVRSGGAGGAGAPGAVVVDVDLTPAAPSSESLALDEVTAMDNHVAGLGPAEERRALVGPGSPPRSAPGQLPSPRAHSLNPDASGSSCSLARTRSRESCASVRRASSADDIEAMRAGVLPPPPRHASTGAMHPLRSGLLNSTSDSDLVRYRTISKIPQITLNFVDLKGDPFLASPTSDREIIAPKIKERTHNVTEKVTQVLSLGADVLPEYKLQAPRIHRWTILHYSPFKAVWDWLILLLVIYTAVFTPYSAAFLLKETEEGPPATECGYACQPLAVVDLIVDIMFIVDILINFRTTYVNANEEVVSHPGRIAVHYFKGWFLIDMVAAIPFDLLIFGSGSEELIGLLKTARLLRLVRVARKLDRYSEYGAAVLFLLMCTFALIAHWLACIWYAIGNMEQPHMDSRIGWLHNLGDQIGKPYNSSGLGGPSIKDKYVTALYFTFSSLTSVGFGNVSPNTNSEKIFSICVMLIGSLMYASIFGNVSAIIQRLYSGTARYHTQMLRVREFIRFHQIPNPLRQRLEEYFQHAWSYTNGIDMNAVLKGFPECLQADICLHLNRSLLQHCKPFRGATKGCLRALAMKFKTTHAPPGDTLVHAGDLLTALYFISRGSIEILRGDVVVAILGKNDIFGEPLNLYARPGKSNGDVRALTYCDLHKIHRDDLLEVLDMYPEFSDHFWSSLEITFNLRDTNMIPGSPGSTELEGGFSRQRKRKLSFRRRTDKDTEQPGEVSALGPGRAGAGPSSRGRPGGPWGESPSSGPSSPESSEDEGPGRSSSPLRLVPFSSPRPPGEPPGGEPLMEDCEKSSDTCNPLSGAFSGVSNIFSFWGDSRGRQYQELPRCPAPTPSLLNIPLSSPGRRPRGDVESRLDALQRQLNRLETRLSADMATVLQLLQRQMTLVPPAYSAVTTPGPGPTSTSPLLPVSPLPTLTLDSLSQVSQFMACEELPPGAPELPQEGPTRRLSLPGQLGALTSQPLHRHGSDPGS

Compound | hERG current change (%, negative = inhibition) at 10uM
Nc1ccccc1Nc1ccccc1 | -13.6%
COc1ccc(OCc2cc(C(=O)N3CCC(c4ccccc4)CC3)no2)c(Cl)c1 | -18.3%
Cc1ccc(C(=O)CSc2nnc(-c3ccccc3)n2-c2ccccc2)o1 | -3.09%
O=C1/C(=C/c2cccnc2)SC(=S)N1C1CCS(=O)(=O)C1 (centres unmarked) | -0.422%
CCOC(=O)c1c(-c2ccccc2)csc1NC(=O)CSc1nnc(C)s1 | 27.7%
Cc1ccc(CNn2cnnc2SCc2ccc(F)cc2)cc1 | -36.3%
COc1ccc(NC(=O)CSc2nc3ccccc3nc2N2CCOCC2)cc1 | -22.6%
CCc1ccccc1NC(=O)C1(S(=O)(=O)c2ccc(C)cc2)CC1 | -43.7%
COc1cc([C@@H]2[C@H]3CNCC=C3C(C#N)=C(N)C2(C#N)C#N)ccc1OC(C)C | -3.91%
COc1ccc(C)cc1S(=O)(=O)N1CC(C)OC(C)C1 (centres unmarked) | 12.5%
Cc1oc2cc3oc(=O)c(CCC(=O)N4C[C@H]5C[C@@H](C4)c4cccc(=O)n4C5)c(C)c3cc2c1C | -54%
CCCN(CCC)CC(O)COc1ccccc1C(=O)Nc1ccccc1.Cl (centres unmarked) | -68.2%
CC(C)CC(NS(=O)(=O)OCC(Cl)(Cl)Cl)c1ccccc1 (centres unmarked) | 1.57%
O=C(CSc1nc(=O)n2ccccc2n1)N1CCCc2ccccc21 | -16.8%
Cc1cccc(C)c1NC(=O)CSc1nnc(-c2cccnc2)o1 | 20.8%
Cc1ccsc1/C=N\NC(=O)c1ccc2c(c1)OCO2 | -5.26%
COc1ccccc1C(=O)NC(=O)COc1cc(Cl)ccc1Cl | 0.882%
O=C1c2ccccc2C(=O)N1c1ncc(Cc2ccc(Cl)cc2)s1 | 8.75%
CC(=O)N[C@H]1C(O)O[C@H](CO)[C@@H](O)[C@@H]1O (some centres unmarked) | 9.71%
O=C(COc1cccc(C(F)(F)F)c1)Nc1cccnc1 | 4.03%
CCc1ccccc1NC(=O)CSc1nnc(CCNC(=O)OC(C)(C)C)o1 | 13.9%
Cn1c(=O)c2c(nc(N3CCN(c4ccccc4)CC3)n2CCCc2ccccc2)n(C)c1=O | 5.04%
COCCSc1nc2c(c(=O)[nH]c(=O)n2C)n1CCCc1ccccc1 | -9.86%

Compound | hERG current change (%, negative = inhibition) at 10uM
COC(=O)c1ccc(NC(=O)CCc2c(C)nc3ncnn3c2C)cc1 | 3.46%
Cc1nc(NC(=O)c2cccc(Cl)c2)sc1-c1csc(Nc2cccc(Cl)c2)n1 | 6.47%
O=C1CCN(S(=O)(=O)c2ccc(Cl)cc2)CCN1 | 0.31%
O=C(CSc1nnc(NC(=O)c2ccccc2)s1)NCc1ccco1 | 15.7%
CCN1C(=O)[C@H]2[C@@H](c3ccc(-c4ccc(F)cc4)c(OC)c3)N3CCC[C@@]3(C(=O)OC)[C@H]2C1=O.O=C(O)C(F)(F)F | -5.88%
Cc1ccc(-c2nn(-c3ccc(F)cc3)cc2C(=O)NC2CCC(O)CC2)cc1 (centres unmarked) | 14.4%
O=C(O)COc1ccc(-c2nccc(-c3cccs3)n2)cc1 | 9.86%
O=C(NCc1ccccn1)C(=O)C1C(=O)Nc2ccccc21 (centres unmarked) | 10%
O=C(Cc1ccc(Cl)c(Cl)c1)NC1CCCCCC1 | 2.45%
CC(C)(C)NC(=O)C(c1cccs1)N(C(=O)C(=O)NC1CCCC1)c1ccccc1F (centres unmarked) | -1.42%
CN(C)CCNC(=O)CNC(=S)N(Cc1ccccc1)Cc1ccccc1F | -40.6%
CCCN(Cc1nnc(-c2ccccc2Cl)o1)C(=O)c1cc([N+](=O)[O-])cc([N+](=O)[O-])c1 | -55.1%
CC(C)CNC(=S)N1CCN(C)CC1.O=C(O)C(=O)O | 11.7%
CN1C(=O)CC[C@H]1c1cccnc1 | 8.38%
O=[N+]([O-])c1cc([N+](=O)[O-])c(Oc2cncc(Cl)c2)cc1NC1CCCCCCC1 | 17.7%
CC(C)C[C@H](NC(=O)c1nc[nH]c1C(=O)NCc1ccccc1)C(=O)OC(C)(C)C | 13%
COc1ccc([N+](=O)[O-])cc1N1C(=O)c2cccc3cccc(c23)C1=O | -1.7%
O=[N+]([O-])c1ccc(-c2nnc3n2CCCCC3)cc1 | -17.3%
COc1ccc(C2CC2/C(C)=N/OC(=O)C2CC2)cc1 (centres unmarked) | 5%
N#CCOc1nc(N2CCCC2)nc(N2CCCC2)n1 | 0.43%
CCCCCCCN1CCN=C1N(C)C | -67.7%
O=C(Oc1ccc(Cl)cc1)c1ccc2nccnc2c1 | 13.1%
Cn1cnnc1SCC(=O)N(Cc1ccc2c(c1)OCO2)C1(C(=O)NC2CCCCC2)CCCC1 | -1.46%

Compound | hERG current change (%, negative = inhibition) at 10uM
CCn1c(CSc2nc3ccccc3s2)nnc1SCC(=O)c1ccc(O)cc1O | 12.2%
CCOCCCN(C)C1CCN(C(=O)c2oc3ccccc3c2NC(=O)c2ccc(F)cc2)CC1 | -77.5%
Cc1cnc(C(=O)OCC(=O)Nc2ccc(Cl)cc2)cn1 | -1.37%
O=C(Nc1ncn[nH]1)c1ccc(S(=O)(=O)N2CCOCC2)cc1 | -5.88%
COc1ccc(OCC(=O)N/N=C2\CCCCc3ccccc32)cc1 | -12.3%
Cc1ccc(SCCn2nc(C(=O)O)c3ccccc3c2=O)cc1 | 10.7%
COc1ccc(COCC(O)CN2CCC(CN3C(=O)c4cccc5cccc(c45)C3=O)CC2)cc1OC.Cl (centres unmarked) | -71.5%
Cc1nc(-c2ccc(NC(=O)c3ccccc3Br)cc2)cs1 | -3.18%
COc1ccc(NC(=O)c2oc3ccccc3c2NC(=O)c2ccco2)cc1 | -8.61%
CCc1ccccc1NC(=S)N(CCN(C)C)C(C)c1cccnc1 (centres unmarked) | -7.25%
CCCC(=O)Nc1ccc(NC(=O)c2ccco2)cn1 | 5.91%
COC(=O)c1c(C)noc1-c1ccc(Cl)cc1 | -12.2%
CCN(CC)C(=O)CSc1nnc(-c2cccc(OC)c2)o1 | -9.81%
Cc1ccc(-c2nnc(N3CCN(C(=O)c4ccco4)CC3)c3ccccc23)cc1 | -75.2%
CCOC(=O)CN1C(=O)C2Cc3ccccc3CN2C1=S (centres unmarked) | -16.3%
COc1ccc(OCC(=O)OCC(=O)c2ccc(OC)c(F)c2)cc1 | 12.8%
CCc1cc(=O)oc2cc(OCc3ccc(C(=O)O)o3)ccc12 | 22.8%
CN(C)CCn1c2c(c(SCC(=O)Nc3ccc4c(c3)OCCO4)nc1=O)CCC2 | -16.1%
Cc1cc(N(C)Cc2ccccc2)nc2cc(O)ccc12 | -56.4%
O=C(NC(=S)NC1CCSC1=O)c1ccc([N+](=O)[O-])cc1 (centres unmarked) | -0.601%
O=C(Oc1ccccc1)c1cccc(N2C(=O)CCC2=O)c1 | -1.41%
COc1ccc(-c2oc3ccc(N4CCOCC4)cc3c2/C=C/c2ccc(OC)c(OC)c2)cc1 | 16.8%
Cn1c(=O)[nH]c(=O)c2c1nc(CN1CCOCC1)n2CCc1ccccc1 | -1.71%

Compound | hERG current change (%, negative = inhibition) at 10uM
CC1CCN(c2ccc3c(c2)S(=O)(=O)c2ccccc2C3=O)CC1 | 7.82%
C=CCn1c(SCCCC)nc([O-])cc1=O.[NH4+] | 5.65%
Cc1ccc(/C=N/n2c(-c3ccco3)n[nH]c2=S)cc1 | 9.2%
N#Cc1ccccc1S(=O)(=O)N1CCN(C(=O)CN2C(=O)NC3(CCCC3)C2=O)CC1 | 17.4%
COc1ccccc1N1CCN(C(=O)c2ccc(NS(=O)(=O)c3ccc(C)cc3)cc2)CC1 | -4.3%
Cc1oc2c(c1C(=O)c1ccccc1)C(=O)C(=O)c1ccccc1-2 | -1.85%
O/N=C1\CCCc2c1nc(-c1ccccc1F)n2O | 26.1%
CCCn1cnc2cc(NC(=O)c3cccs3)ccc21 | 10.3%
CC(C)(C)c1cc(/C=C2\NC(=O)NC2=O)cc(C(C)(C)C)c1O | -12.3%
O=C1CC(N2CCN(c3ccc(Cl)cc3)CC2)C(=O)N1c1ccccc1 (centres unmarked) | 1.34%
CN(C(=O)COC(=O)c1cccc(Cl)c1)C1CCS(=O)(=O)C1 (centres unmarked) | 1.08%
O=C(Nc1ccccc1OC(F)(F)F)c1ccc([N+](=O)[O-])cc1 | -2.38%
Cc1ccc2c(c1)C1CN(C)CCC1N2C(=O)/C(C#N)=C/c1ccc2c(c1)OCO2 (centres unmarked) | -21.2%
O=C(c1ccccc1Br)N1CCn2c1nc1ccccc12 | -14.5%
COc1ccc(N2CCCn3c2nc2c3c(=O)n(Cc3ccc(C)cc3)c(=O)n2C)c(OC)c1 | -10.4%
BrCCc1ccccc1 | 15.4%
c1ccc(Nc2nc(-c3cccnc3)cs2)nc1 | -1.81%
COC(=O)c1cc(=O)n(-c2ccccc2)c(=Nc2ccccc2)s1 | 1.66%
Cc1cc(C(=O)N2CCc3ccccc3C2)n[nH]1 | 5.11%
CCS(=O)(=O)N1CCC(C(=O)Oc2ccc(C(=O)OC)cc2)CC1 | 3.85%
